# Measurements reported in the supplement of paper PMC5499739.
# The full ranking holds about 16,000 sequences; the median of “Z-score” is about -0.37, and the highest 2% start at about 3.1. Some of the results follow.
# Tested on: RBM10 RRM1-ZnF-RRM2 (GST-tagged construct)
# Test: RNAcompete 7-mer binding Z-score; higher = stronger binding preference
# Procedure: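 RNAcompete: 20 pmol GST-tagged RBM10 RNA-binding constructs were incubated with a designed RNA pool of about 241,000 sequences up to 41 nt (1.5 nmol) on glutathione beads for 30 min at 4 °C and washed. Bound RNAs were identified by microarray hybridisation. Each RNA 7-mer is scored by a one-sided Z-score of its enrichment, computed over probes that contain the 7-mer within longer pool sequences.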
row,Sequence,RNAcompete 7-mer binding Z-score
1,GAUGAAA,1.16
2,ACCCCCC,-0.329
3,AUGCCAA,-0.5
4,GAAAGCG,0.858
5,CAGGGCG,2.41
6,AAUUUAG,-0.205
7,UAUAAAG,0.0386
8,ACUAGGC,-0.235
9,AGACUGA,-0.49
10,UCAUAGA,-0.449
11,GAGGUUA,1.77
12,AAAUCAA,-0.195
13,UCGACGG,0.243
14,UCUUGCU,-0.876
15,GGGUCAG,2.73
16,UUGUUAU,-0.581
17,GCGACGC,-0.253
18,GGCCAGG,1.32
19,UAGCUUU,-0.719
20,GACUGCU,-0.887
21,CCCGCUA,-0.832
22,GGAAGGU,3.94
23,GUGGUCU,0.264
24,AGGUUCG,0.545

row,Sequence,RNAcompete 7-mer binding Z-score
1,GCGACUC,-0.533
2,CCAUUAG,-0.42
3,ACACGUA,-0.187
4,CGUCCCU,-0.759
5,UCAAGUA,-0.409
6,AAAUUGU,-0.293
7,ACGAAUC,-0.497
8,UUACUUC,-0.643
9,CCGAGGA,0.563
10,CUAUUUU,-1.05
11,CGAGACC,-0.413
12,CUAUUCC,-0.89
13,UCGUACC,-0.581
14,AACCGAA,-0.439
15,UUUUACC,-0.876
16,UAGUUCU,-0.817
17,GUGAGGG,4
18,UUGGCAU,-0.187
19,CAGUAUU,-0.537
20,GGAGCCG,0.836
21,UGACUUC,-0.755
22,GAACCUC,-0.883
23,UUGUGUG,0.0604
24,AAACUAA,-0.508

row,Sequence,RNAcompete 7-mer binding Z-score
1,CGAGGAG,1.67
2,GAGGGUC,1.39
3,CUAUAUU,-0.825
4,UAACGGG,2.01
5,ACUAUUG,-0.606
6,UUCGAUA,-0.635
7,GGUUACC,0.632
8,GCAGCAU,-0.253
9,AACUACG,-0.42
10,AAUAACU,-0.446
11,GCCGGGG,1.4
12,CCUAAAC,-0.865
13,GUACUAU,-0.0962
14,AGAGCUC,-0.85
15,GCGAAAG,0.803
16,UCCCAGC,-0.643
17,UCGAACU,-0.694
18,UGGCAAG,1.1
19,UGAUACA,0.0459
20,ACUAUGG,0.698
21,UCCACCC,-0.617
22,CCUCGGA,-0.639
23,ACUACAA,-0.581
24,ACUCAGU,-0.661

row,Sequence,RNAcompete 7-mer binding Z-score
1,UAGUUUU,-0.581
2,GGAUGAU,1.38
3,GGCAUCA,0.439
4,CUUCAAA,-0.73
5,CAAUCUU,-0.872
6,UUCUGCC,-0.948
7,CGCAAGU,-0.562
8,GACCCAG,-0.541
9,CAGGUGC,1.24
10,GAUGCGU,0.0932
11,UUAUUAA,-0.701
12,ACCACUU,-0.781
13,CACACCU,-0.581
14,GCGGCGG,2.05
15,CUUUUAA,-0.814
16,UUUCAUU,-0.632
17,GUGCAUC,-0.278
18,AUUCUUG,-0.785
19,CCCCGCA,-0.679
20,CCGUUUC,-0.923
21,UUUUCGA,-0.621
22,AACUCUC,-0.799
23,GGUUCGG,1.44
24,UCUUUUC,-0.73

row,Sequence,RNAcompete 7-mer binding Z-score
1,UUGUUGU,-0.384
2,UACUUCG,-0.697
3,GUGAAUA,0.399
4,AAUUCAU,-0.351
5,GGGACAG,2.88
6,CAGCCGA,-0.719
7,UGAAAAC,-0.431
8,GUCCGAG,-0.0306
9,CUCUAGU,-0.799
10,GCCGGUU,-0.293
11,UACCUCG,-0.675
12,CGUUGUG,0.0495
13,CACGAGU,-0.0889
14,CUGGCCA,-0.65
15,CUAAAUC,-0.828
16,CGCUUUA,-0.908
17,GCUCUCA,-0.526
18,CCCGUUA,-0.621
19,UAAUUCC,-0.81
20,CCCCCAU,-0.362
21,CCCACCA,-0.632
22,CUUUCUA,-0.821
23,GCCGGCA,-0.369
24,CUGUUCA,-0.865

row,Sequence,RNAcompete 7-mer binding Z-score
1,CUGUGGU,0.213
2,AGGGGCG,2.07
3,AUAUGCG,0.0969
4,UUGCUGU,-0.548
5,UGUAGGU,1.89
6,CUAGGCU,-0.606
7,UUAGGGC,1.22
8,ACCACGC,-0.672
9,CUGUUAU,-0.85
10,UUAGAUC,-0.453
11,AUUACGC,-0.264
12,ACGGGGG,3.19
13,CCCGAAA,-0.839
14,UUAACUU,-0.752
15,GUGGCUA,1.16
16,UGAGAAA,0.337
17,GCAUGGC,0.253
18,CUCACCU,-0.912
19,CGCACUU,-0.978
20,GAGCAGG,2.84
21,ACGCCCC,-0.715
22,GAUCAUG,0.392
23,ACAUCAG,-0.191
24,UUAGUAU,-0.296

row,Sequence,RNAcompete 7-mer binding Z-score
1,UCUAACC,-0.737
2,CGGAGCU,0.275
3,AAAAACG,0.0969
4,CGAGCAG,1.09
5,AGAGCUU,-0.741
6,UAAUUAU,-0.624
7,CAUUACG,-0.147
8,GAGCUUU,-0.708
9,AACGAAU,-0.333
10,UAAAUAU,-0.428
11,UCAUUUA,-0.752
12,UCAAAUU,-0.744
13,GAUAGGA,3.17
14,CAUUUCU,-0.872
15,GCAGUUC,-0.595
16,AAUGUUG,0.184
17,CGCCAGU,-0.559
18,CUAAAGC,-0.628
19,AGCGACU,-0.46
20,AGCAGAU,0.272
21,CGAUCUG,-0.795
22,CAAUCCU,-0.887
23,GAGUAAG,1.54
24,AAGUGGU,1.6

row,Sequence,RNAcompete 7-mer binding Z-score
1,AGAGUUU,-0.0379
2,GGUCUGU,0.0823
3,UGUGGUU,1.03
4,CGGGUUU,1.01
5,UAACCUC,-0.679
6,UCUCCUA,-0.879
7,CUUCCGG,-0.635
8,CGAGUUC,-0.69
9,GGGCGUG,2.84
10,AGUAUCG,-0.00512
11,GUUACCA,-0.0707
12,CUGAACA,-0.795
13,GAACUUA,-0.566
14,CGAAGUU,-0.235
15,CUAAGAG,-0.103
16,UGUCCCC,-0.464
17,GCACUAU,-0.504
18,AAGGACA,3.12
19,AUCUUGA,-0.785
20,UGCUACU,-0.69
21,GCCUUGC,-0.788
22,UCGGCGC,0.024
23,UGACACG,0.0859
24,AUAGCGG,1.03

row,Sequence,RNAcompete 7-mer binding Z-score
1,GAUGAAG,2.32
2,UUAAUAG,-0.53
3,AUUCCUA,-0.81
4,CUCUGCA,-0.832
5,UGGUCGA,0.65
6,CGAGCUU,-0.723
7,GACGCUU,-0.992
8,UCGGAAA,0.392
9,GUAAUCU,-0.457
10,UGGACUG,0.84
11,GAAAGAG,1.42
12,UACGGCA,0.348
13,AGCUCAU,-0.897
14,UUUCAUC,-0.664
15,AGCUUCU,-0.908
16,AAAGCUU,-0.504
17,AGUCUGU,-0.482
18,GAGGCUA,0.192
19,UUGGGGU,2.84
20,AUGGGCU,1.51
21,UUUUUAC,-0.766
22,CGGAUCG,0.53
23,UCUCCCA,-0.697
24,UCGACUG,-0.581

row,Sequence,RNAcompete 7-mer binding Z-score
1,GUAUGGA,2.44
2,AUGGGAU,3.25
3,GCGGUAA,1.01
4,CUGCUGC,-0.639
5,GAAAAAC,0.0677
6,ACGGGAU,1.88
7,ACCAACA,-0.358
8,CACUUCC,-0.868
9,UCGUGCG,-0.027
10,UGGUCUU,-0.632
11,GGCUUAC,-0.548
12,GUGGCGC,1.46
13,GAGGCUG,0.727
14,UUAAAUC,-0.65
15,AGAAACU,-0.592
16,ACUCAGG,0.0349
17,GCAACUC,-0.697
18,AAGUAAC,0.0932
